Assay results taken from publication PMC7577719, “The structural basis for Z α1-antitrypsin polymerization in the liver” (Science Advances, 2020).

Biological target: the molecule itself
Experiment: native gel or EMSA; NativePAGE 3 to 12% (w/v) acrylamide bis-tris gels, Western blot; ex vivo polymers (ZZ) as isolated from liver and M polymers induced by heating at 55°C for 48 hours

B1: Z α1-antitrypsin (E342K) polymers isolated from explant liver tissue of Z homozygotes (natural protein)
chain: not shown
notes: α1-antitrypsin, human, severe Z (E342K) allele; Linear unbranched polymer chains of heterogeneous length; Glycosylated, sensitive to PNGase F and EndoH (not matured in the trans-Golgi network); also called ZZ; ex vivo polymers
  binding result: binds
